Experimental data published in article PMC12136788.
Some of the results follow.

T1: UNK ZnF1-3 (human, UniProt Q9C0B0 31-174)
T1 sequence: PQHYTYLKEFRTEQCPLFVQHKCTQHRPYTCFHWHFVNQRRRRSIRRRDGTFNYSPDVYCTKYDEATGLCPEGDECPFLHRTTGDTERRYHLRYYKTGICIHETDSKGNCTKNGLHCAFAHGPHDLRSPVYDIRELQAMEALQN

B1: 56573591_56581124_1976_CDS_ENSG00000108389_ENST00000323456|human|control|control (ssRNA)
RNA: GGGAGUUCUACAGUCCGACGAUCACAGUGGUUAUUCAGGUUAGGGUCACUGGAUGUACGAGUCAGGGGGCUGCUUGUGUCACAGGCAGAAAGAAGAUCAUCCAUGGAUCUGGUUUUAGGUAAUCUGUCCAGAGAGCGGCCAGACAACAGAGGAUUGAGCAUCA
B2: chr6:170626544:170626545:+_ENSG00000112584_ENST00000537664|hu_hu|FALSE|FALSE (ssRNA)
RNA: GGGAGUUCUACAGUCCGACGAUCAGGGGUACAUCCAGGAUACUUGCUUCGGUGGUGCUCUGCCAGUUCUUUGAAAUUUACUACUGUACAUAUAUGUGGGCAGGUACUUCCCACAAAUCCUUGCAAACCUCUCACACCCAUAACCAACAGAGGAUUGAGCAUCA
B3: chr16:8992458:8992459:-_ENSG00000187555_ENST00000381886|hu_hu|FALSE|FALSE (ssRNA)
RNA: GGGAGUUCUACAGUCCGACGAUCUUGUCUAGGCUUGAAGAACUGUAGAAGAUCUCUUAAAGUACCUUCAUAAUUAUGUCUAAGAGGAUUACCUGGGCCAUCCCUAUAACCUUGAGACUUGAAAAACUGCAGCAACAUUGGAUCCAACAGAGGAUUGAGCAUCA
B4: 18875378_18877974_3791_CDS_ENSG00000157106_ENST00000446231|human|control|control (ssRNA)
RNA: GGGAGUUCUACAGUCCGACGAUCCACCGAUUUGUCAAAGCUGGAGAUGCAGCAAUCAACACCUGUCAUGGCACACAGGUGUUCCUGGUACUCCACAGAGGCCUUUUCAAACCUCCCUUCAGCCUGUUGAGCCACUGAGUUAAUCAACAGAGGAUUGAGCAUCA
B5: 17796332_17796452_737_CDS_ENSG00000078674_ENST00000519253|human|control|control (ssRNA)
RNA: GGGAGUUCUACAGUCCGACGAUCGUCAUUACUUAAAGCAGAAGCAAACAACUCUUUACACUGUGCUGAUCCAAUCGUUUCUCUGUUUGGGGGGUUUGUAGAUGCAUCUUUGCUCUUGUUAGUAUUAAUCUGCAUAGGCAAAAACAACAGAGGAUUGAGCAUCA
B6: chr4:95690885:95690886:+_ENSMUSG00000028572_ENSMUST00000156910|mus_mus|mus_mus_mus_hu_False|8_18 (ssRNA)
RNA: GGGAGUUCUACAGUCCGACGAUCUUUAGAAAAUGUUAAAUACCAUGCUAAAAUAUUUUCAAAGGCUUAUUUUAUUUUACCAGAAGUCACAGGCAAGCAGACACUACAAGAAUAUAUAAAUACAAACCAACAGUGUAUAACUGUCAACAGAGGAUUGAGCAUCA
B7: chr9:42776281:42776282:-_ENSMUSG00000059495_ENSMUST00000165665|mus_hu|FALSE|FALSE (ssRNA)
RNA: GGGAGUUCUACAGUCCGACGAUCUCUUUACCCACUCCCAUCCCACCCUUUCCUUAGCAACCCCCACCCCUGCCACUAUCCGAAGCAUUUCCAUUUGUUUUUACUUCCUGCUCAAUCUGCAGGGACAGUUUUACACAAGUGCCACAACAGAGGAUUGAGCAUCA
B8: 54283497_54285306_744_CDS_ENSG00000091164_ENST00000590954|human|control|control (ssRNA)
RNA: GGGAGUUCUACAGUCCGACGAUCCAUGGAAUAAAGCUUAACAGGUUGAUUGAAUGCCACAGUAAUAAGCAGCUGUUCAUCACAGUCAGAUUCCAAGAAGGUUGUGUCUUUUCGUAAACAGUUGUCAAAUCCAUGCUCAUCACUCAACAGAGGAUUGAGCAUCA
B9: chr2:121837063:121837064:+_ENSMUSG00000033411_ENSMUST00000110578|mus_hu|motif|central (ssRNA)
RNA: GGGAGUUCUACAGUCCGACGAUCAUUAGUCAUUCAUAUAUUCUUAUCUACCCAGUCUCUUGAUUUUUGAAAAGAUUUCACCGGCAGUAGAAUAUUACAGAAACAAAAUAUAAAUGCAUGUCUUUCUAAAUGAAACUUACAUAGCAACAGAGGAUUGAGCAUCA
B10: chr6:56729896:56729897:-_ENSMUSG00000059486_ENSMUST00000114323|mus_hu|FALSE|FALSE (ssRNA)
RNA: GGGAGUUCUACAGUCCGACGAUCCUUAUGCAAAUCAGCUGGUGGGCUACAUAACUUGUAAACUUUUUCUGCUUGGGGGCUGUAACAGACAGAAGAGUAAAGACUACAAGGAUUUUCUGAAGAUGCUUCAAUGAAAAUCAUCAUCAACAGAGGAUUGAGCAUCA
B11: chr17:60770872:60770873:+_ENSG00000011028_ENST00000303375|hu_hu|hu_hu_hu_mus_True|8_108 (ssRNA)
RNA: GGGAGUUCUACAGUCCGACGAUCUCUCUUUUCUUUUAAAAAAAAAGACAAACAAUAAUAGCACAUUUCGAGAAUCAAGAACUACAAUAGAGGGUCCGCUUUGAGUUUUUGUUCACAUCGUCCUGCAACGCUGUCGCGGGACUGCAACAGAGGAUUGAGCAUCA
B12: 23048695_23050092_2042_3pUTR_ENSMUSG00000026775_ENSMUST00000028117|mouse|control|control (ssRNA)
RNA: GGGAGUUCUACAGUCCGACGAUCGCAAGCAGCUGGGCUCGAGUUUCAUUCCAUCUGUCAUUCUCAGGCAACAGUGAUACAUGCCCAAGUGUUGGCCCUCGAGGCAUGAUUGUAGCUUUAUUAAUUGGCAUUGCAUCCUUUGUGCAACAGAGGAUUGAGCAUCA
B13: chr12:48362563:48362564:+_ENSG00000134291_ENST00000256686|hu_hu|hu_hu_hu_mus_False|1_38 (ssRNA)
RNA: GGGAGUUCUACAGUCCGACGAUCUCCGUCAAGCCCUUCGAUAGACCCUUGCGGGGGAAACUGUAAUCACUUUGUAUGGGGAAGGAAAAGAAACGCCAACACACUUUCAAAAAGCGGGGGUGGGGUGAGGCGGGAGGUUGGGAACAACAGAGGAUUGAGCAUCA
B14: 427339_427459_3132_3pUTR_ENSG00000073614_ENST00000399788|human|control|control (ssRNA)
RNA: GGGAGUUCUACAGUCCGACGAUCAGCCAUUGCUUUCUCCACAGCAUGGUGGGGUGCCAACCCUACCCCAGAGUCUAUCAGCUUCUUCAUGACAUCCAAAGUGACUUGUUGCGGAUCUGAUAAGGUCAGUCUUACUUCGUCCAACAACAGAGGAUUGAGCAUCA
B15: chr12:16048344:16048345:+_ENSG00000023734_ENST00000419869|hu_hu|hu_hu_hu_mus_True|38_58 (ssRNA)
RNA: GGGAGUUCUACAGUCCGACGAUCAGAUCGUCCAUAAGUAAUAACCAAAAUCUCUCCUUCAGGAAUAUACUCCAUGCUACUAACAGACAUAUUAAAAUUUAGAGAUUUCACUUCUGUCAUUGUGGCAUGAUCCCAGAGCCGAACCAACAGAGGAUUGAGCAUCA
B16: 150239348_150240437_424_3pUTR_ENSMUSG00000028967_ENSMUST00000030811|mouse|control|control (ssRNA)
RNA: GGGAGUUCUACAGUCCGACGAUCCGAGCAGCACAUCCAACAGUUGUUAGGUGCUCCUGAGCAGGGGAGUUCAGAUUGUAGGCCAUGGUUAUUGGAUCAAUAUUUAAAAAGUUAUUUUCAAACUCACUGUGACUGCCCCAGCAGCAACAGAGGAUUGAGCAUCA
B17: 88408222_88408429_915_CDS_ENSMUSG00000005371_ENSMUST00000130379|mouse|control|control (ssRNA)
RNA: GGGAGUUCUACAGUCCGACGAUCGGACACGCCCCCUGGCCACUGACACACACUGCAGAACCAACUGUGCAUGUGCUGCGGAUUAUACAGUGGUCAAUAAUAGGGCUGCAGUUGACUGUGAUCUCUAAGCAGUGGUGUGCGUUGCAACAGAGGAUUGAGCAUCA
B18: chr9:100896081:100896082:-_ENSMUSG00000032527_ENSMUST00000035116|mus_mus|motif|central (ssRNA)
RNA: GGGAGUUCUACAGUCCGACGAUCGAAAUUGAAGAAUUCACGCAGGUUACACAGAGCAUCAACAUCAUUGUCGAAAGCUCGGUGGGCCACACCUGACACAGUGGUGUGGGUCUUGGCACCACCCAGCUGCUCUUGAGUGACAUCCAACAGAGGAUUGAGCAUCA
B19: chr3:119242560:119242561:+_ENSG00000113845_ENST00000264244|hu_hu|FALSE|FALSE (ssRNA)
RNA: GGGAGUUCUACAGUCCGACGAUCUCAGCUCUCCAGUGAGUUUCAAGUUCAGAGCACUUUCAGUCCUUGUCUUGUUUAUCUAUUACUGAAGGGUUUCUAGGAAGGUUUAGCAGUGCUUCAAUUUUCUUAGCAUCAUUCUCAGGUCAACAGAGGAUUGAGCAUCA
B20: chr3:105481821:105481822:-_ENSMUSG00000027905_ENSMUST00000090680|mus_hu|FALSE|FALSE (ssRNA)
RNA: GGGAGUUCUACAGUCCGACGAUCCCCCUCUUUAAGUCUUGUCUUCAUCUGGAUUCCAGGUGAUUCUUGAUAUUUCUCUGGAUUGGGGGUGUCACUUCCAUUUGGUGGUUGUUCCAAAGAAAUACGAUCAUCCACAGGCGUAGACAACAGAGGAUUGAGCAUCA
B21: chr7:117451621:117451622:-_ENSMUSG00000038371_ENSMUST00000164759|mus_mus|FALSE|FALSE (ssRNA)
RNA: GGGAGUUCUACAGUCCGACGAUCGAACAUACGGCAGGCGGUGCCGUCAUGGAAGUUAAAAGACUCCAGUUACAAAAGCAGUAGUGGGCACAGCUUCAAAGAGCCGAGAGGACAGUGGGCUCCAGAGUCUACAAAGUACAAAAACAACAGAGGAUUGAGCAUCA
B22: 44200788_44200988_1324_CDS_ENSG00000138095_ENST00000260665|human|control|control (ssRNA)
RNA: GGGAGUUCUACAGUCCGACGAUCGAAAUAGUGAGGUCUGAUAGGAAAACCUUCCUCCUUCACAGCCUUCAUUAAGGCUUUUGCCAAAUCAGUUUUAUUGGCGAGUAAAGCACAAUGGAGGGUGAACUGCAGAGGAAAGGAGUGCAACAGAGGAUUGAGCAUCA

Target: T1, UNK ZnF1-3
Assay: nsRBNS (natural sequence RNA bind-n-seq); RBNS binding buffer (assumed for nsRBNS): 25 mM Tris pH 7.5, 150 mM KCl, 3 mM MgCl2, 0.01% Triton X-100, 500 ug/ml BSA, 20 U/ml SUPERase-In, 4 C; UNK is unkempt and MSI1 is Musashi-1; names of the RNAs are library labels; protein concentration not given here; high values mean tight binding

Row | Binder | binding signal
1 | B1 | 1.25 enrichment R
2 | B2 | 1.12 enrichment R
3 | B3 | 1.88 enrichment R
4 | B4 | 0.975 enrichment R
5 | B5 | 1.04 enrichment R
6 | B6 | 1.83 enrichment R
7 | B7 | 0.75 enrichment R
8 | B8 | 1.08 enrichment R
9 | B9 | 1.13 enrichment R
10 | B10 | 1.15 enrichment R
11 | B11 | 0.832 enrichment R
12 | B12 | 0.701 enrichment R
13 | B13 | 2.28 enrichment R
14 | B14 | 0.966 enrichment R
15 | B15 | 0.993 enrichment R
16 | B16 | 1.62 enrichment R
17 | B17 | 0.402 enrichment R
18 | B18 | 0.719 enrichment R
19 | B19 | 0.625 enrichment R
20 | B20 | 0.529 enrichment R
21 | B21 | 1.44 enrichment R
22 | B22 | 0.712 enrichment R
